This note sets out measurements from the supplement of paper PMC11417369.

± gives the standard deviation of the averaged measurements. The list shows a part of the results.

The subject of this test is PfAP2-LT AP2 domain (GST-tagged). The experiment in a line: gcPBM binding intensity (ln(normalized median fluorescence intensity)); higher = stronger DNA binding. Put shortly: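 The binding buffer was 1× PBS containing 1% milk, 0.2 mg/ml BSA, 0.5% salmon testes DNA and 0.03% Triton X-100. In it, GST-tagged P. falciparum DNA-binding domains expressed in E. coli were applied for 1 h to an Agilent 4 × 180k array of primer-extended double-stranded 36-bp intergenic genomic probes plus negative controls. Binding intensity, read with Alexa488 anti-GST antibody and a 488 nm scan, is the highest Masliner-normalised natural-log median intensity across replicate spots of either probe orientation.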
Consider “AATTGTCAGAGAATATGTACTTAAGTATTTATTGTT [XGTACX_site1947]”, for which the “gcPBM binding intensity (ln)” value amounted to 8.88 ± 0.42. As to “AATGCATTGATTGCATTCAAAAAAAAAAAAAAAAAA [XGTACX_negctrl_site597]”, the “gcPBM binding intensity (ln)” value is 8.29 ± 0.45.

For the sequence “AATCATAAAGAACATATAATATATATATATATATAT [CACACA_negctrl_site316]”, the “gcPBM binding intensity (ln)” value was found to be 9.31 ± 0.43.

As for “AATAAGATATCTACAACACACATTTAATTTTTTTTT [CACACA_site1641]”, the “gcPBM binding intensity (ln)” value was found to be 8.71 ± 0.51.

Take “TAAATAAAAAAACACACACACATATATATATATATA [CACACA_site2269]”: the “gcPBM binding intensity (ln)” value turned out to be 10.2 ± 0.36. With “ATAAAAAAATAAAACACACACATATATATTATATAT [CACACA_site2810]”, the “gcPBM binding intensity (ln)” value stood at 9.31 ± 0.28. With “AATATATGCTTTCGTTATATTAAATTCAATTTAATG [GTGCAC_negctrl_site76]” the figure was 8.53 ± 0.4; with “TCTTATATATTTATTTGTACATATATATATATATAT [XGTACX_site7214]”, 9.07 ± 0.49; with “AACAACTATTAATTTACACACATGTATTTATTTTAC [CACACA_site5683]”, 9.3 ± 0.4.

Take “TGTATTACGAAAAAATGTACAGAAAAAGAAACAAAA [XGTACX_site2777]”: the “gcPBM binding intensity (ln)” value was 8.82 ± 0.56.

For the sequence “TTTGTCATAAGCAATGCATGTAAGTTTCTGACATTA [TGCATGCA_site1007]”, the “gcPBM binding intensity (ln)” value was determined as 8.47 ± 0.29. The value for “TGGGATAGATCATTTACACACACAAAAAAAAAAAAA [CACACA_site2140]” was 9.25 ± 0.42; that for “TCTAATAATAAATACACACACATATATATTTATATA [CACACA_site5169]” was 9.15 ± 0.23. The value for “TTTTTTTTTGAAAAAAGTACTTAATTTTTAAGAAGA [XGTACX_site3591]” was 7.83 ± 0.3; that for AAGGAATGCATATAGGTGCTACACATAAAAATAAAA was 9.02 ± 0.6; that for “TACTTTTTTCCTATTATGTTTCTTATTTTTATAAAT [XGTACX_negctrl_site561]” was 8.69 ± 0.49. With “TTAAGTAGTACATACACACACATATACAAAAAGAAA [CACACA_site3972]” the figure was 9.63 ± 0.49; with “GTCAACAAGAATTAAGTGCATAATTTTTTATTAAAT [GTGCAC_site9492]”, 8.64 ± 0.43; with “ATACAGATAGGATGCACACATAATTCAAATACAATA [CACACA_site4531]”, 9.28 ± 0.49. On to “ATATAATAATAATATTGTACAATAAAAAATATATAT [XGTACX_site7350]”, for which the “gcPBM binding intensity (ln)” value was found to be 8.89 ± 0.47. “AGTAATAATCGGCATGCATGTCAGTGGTAGTATATA [TGCATGCA_site312]”: the “gcPBM binding intensity (ln)” value came out at 9.35 ± 0.4. The value for “ATGTCAAGAACTGAACGTACAAACTTTGTAATATTG [XGTACX_site8754]” was 9.01 ± 0.39; that for “AAATTTTATGTATAATGTACACATAAATTTTTCTTT [XGTACX_site7266]” was 8.54 ± 0.43.

With “GGAATATTAAAAAAATGTACAAAAAATAATATCCAT [XGTACX_site2596]”, the “gcPBM binding intensity (ln)” value was determined as 9.01 ± 0.4. Regarding “AGTAAAAAAAAAAAAAAAAAAAAAAAAAAAAAAAAA [GTGCAC_negctrl_site147]”, the “gcPBM binding intensity (ln)” value stood at 8.12 ± 0.028. Turning to “TATTAATATTTTTGTTGTACTTAAAAATGATGGTAG [XGTACX_site3501]”, the “gcPBM binding intensity (ln)” value came to 8.37 ± 0.37. Consider “TATTATTTTAATTATTCACACATTATTATAAAAATT [CACACA_site5538]”, for which the “gcPBM binding intensity (ln)” value came out at 8.48 ± 0.45.

In the case of “CATATACACGAACACACACACATATAAATAAATATA [CACACA_site6379]”, the “gcPBM binding intensity (ln)” value came to 9.74 ± 0.29. The value for “ATATATACGTATGAATGTATATTTGTTTGAATTTTT [CACACA_negctrl_site524]” was 8.79 ± 0.37; that for “TTTATATATTAATATGCACACACAAGAAGTAATTAT [CACACA_site9045]” was 9.2 ± 0.3; that for “AATAATAACATACAGACACACACGTAAAAGCACGTG [CACACA_site253]” was 9.29 ± 0.43. With “AATGGGTAAACATACACACACACATATATATATATA [CACACA_site1991]” the figure was 10.2 ± 0.11; with “TATAATGTTAAATAATGTACATATATTTTTTTTTTT [XGTACX_site4722]”, 8.5 ± 0.51. The value for “TTACAATTTAATATATGTACATATTTGTGATTTATC [XGTACX_site2911]” was 8.76 ± 0.47. Take “TATATATATTAAAAAGTGCATTATTCATATTATATA [GTGCAC_site9400]”: the “gcPBM binding intensity (ln)” value worked out at 8.41 ± 0.39. The value for “TTTATTAATAATTATACACACATATAAAATGAATAA [CACACA_site1359]” was 8.58 ± 0.51; that for “AAAATATCTTGTTACTGTACAAATATAAATAAATAC [XGTACX_site3684]” was 8.65 ± 0.54.

Take “CATGAATCCTAATAATGTACATAAGAATTCATAATG [XGTACX_site1607]”: the “gcPBM binding intensity (ln)” value came to 8.73 ± 0.33. With “TACATATATATATATGAACACACAAAAAGAATATTT [CACACA_site8421]” the figure was 9.05 ± 0.44; with “ATAAGCATACATATTACACACATATAATATATATAT [CACACA_site2487]”, 9.11 ± 0.31. With “AGTGGATAAATTTATTCACACATTTTTTTTTTTTTT [CACACA_site5914]” the figure was 8.51 ± 0.41; with “TCTTACTAATTTATGGGGACTTATCACCTATTCAGT [CACACA_negctrl_site652]”, 8.72 ± 0.59. With “TTTTATGAGAAACACACACACAAAAAAAAAAAAAAA [CACACA_site4129]” the figure was 9.05 ± 0.47; with “AAAAAAAAAAAAAAAACACACATACACATATATTTT [CACACA_site7768]”, 9.12 ± 0.26; with “TATATTATTTATAGTAGTACATAAAATATAAATATT [XGTACX_site4417]”, 8.55 ± 0.49.

For “ATAATACATACATACATACACACATATATATATATT [CACACA_site3576]”, the “gcPBM binding intensity (ln)” value worked out at 9.29 ± 0.38. Regarding “TATTGTATTTCATATTGTACTAAAAAAAAAAAAAAG [XGTACX_site6694]”, the “gcPBM binding intensity (ln)” value came to 8.31 ± 0.46.

Regarding “TAAAAAAAAAAAAAAACACACATATAAATATTTATA [CACACA_site6702]”, the “gcPBM binding intensity (ln)” value is 8.55 ± 0.4.

In the case of “TCAATAATAAAAAACACACACAAAAAAAAATAATTA [CACACA_site2798]”, the “gcPBM binding intensity (ln)” value is 9.21 ± 0.52.

As to “AACAAAGTCATACATACATACATATATATATATATA [GTGCAC_negctrl_site632]”, the “gcPBM binding intensity (ln)” value turned out to be 9.64 ± 0.14. Consider “AAATTAAAATAAAATAGTACATATATTTATATTTTT [XGTACX_site1687]”, for which the “gcPBM binding intensity (ln)” value was 8.35 ± 0.42. With “TATAAAAAAAAAAAAAAAAAAAAAAATATATATATA [CACACA_negctrl_site817]” the figure was 8.79 ± 0.25; with “TATTATTTTTCATATGCATGCAAAAATAAAAAAATA [TGCATGCA_site350]”, 8.56 ± 0.22. With “ATTTTTTTGTATATATATGACTGGGGATATAATCAA [GTGCAC_negctrl_site274]” the figure was 8.74 ± 0.35; with “ATGAAAAAAAAAAAAAAAAAAAAAAAAAAAAAAATA [CACACA_negctrl_site1083]”, 8.37 ± 0.55.

Regarding “AAAAAAAAAAAAAATTGTACTTAAATATATATATAT [XGTACX_site7604]”, the “gcPBM binding intensity (ln)” value turned out to be 8.62 ± 0.33.
